# Reference: patent publication US20170296668A1, “METHODS OF INCREASING SOLUBILITY OF POORLY SOLUBLE COMPOUNDS AND METHODS OF MAKING AND USING FORMULATIONS OF SUCH COMPOUND” (VIZURI HEALTH SCIENCES LLC, priority 2009, published 2017)
# Like-named read-outs stand apart in the source and are kept apart here.
# Columns and labels:
# [1] = Nonoxynol-9 concentrates via thermal treatment process; format: physicochemical
# [2] = cited from earlier work
# [3] = Supersaturation test by addition of a crystal; conditions: Room Temp., crystal addition
# [4] = Solubility in Ceteareth-20 via thermal treatment process; conditions: thermal treatment >200° C.
# [5] = Solubility in Polysorbate 80 via thermal treatment process
# [6] = Solubility in PEG 400 / PEG 300 via thermal treatment process
# [7] = Aqueous solution clarity: water added to concentrate vs non-concentrate method
# [8] = Apigenin solubility in nonionic surfactants via high temperature processing method; conditions: thermodynamic from solid
compound,measurement,setting,value
"O=c1cc(-c2ccc(O)cc2)oc2cc(O)cc(O)c12 [Apigenin, 4′,5,7,-trihydroxyflavone]",Prepared Thermal Treatment Concentration in Nonoxynol-9,[1]; Table XVI,30 mg/mL
same,Apigenin Literature Solubility,[2]; Propylene Glycol,1.0 mg/mL
same,Literature Solubility in H2O @ 25° C.,[2]; Table XV,0.001 mg/mL
same,Literature Solubility in H2O @ 25° C.,[2]; Table XVI,0.001 mg/mL
same,supersaturation in Ceteareth-20,[3],%. Not Super Saturated at Room Temp. via crystal
same,Conc. In Ceteareth-20,[4],~10000 µg/mL
same,SOLUBLE CONC. RANGE (% wt/wt),"[5]; PS80, 1. Thermal Treatment method",4-6%
same,Prepared Thermal Treatment Concentration in Polysorbate 80,[5]; Table XV,30 mg/mL
same,solubility,"[5]; polysorbate 80, organic solvent or mixture, thermodynamic from solid",40 to 60 mg/mL
same,DPSI PS80 Sol. Data,[5]; thermal treatment,35 to 45 mg/mL
same,Jordi PS800 Results,"[5]; thermal treatment, Table III",40.5 mg/mL
same,PS80 Sol. Conc. -,"[5]; thermal treatment, Table III",40 to 60 mg/mL
same,Flavonoid in Solvent -,"[6]; PEG-400, HPLC, thermal treatment concentrate",34.8 mg/mL
same,Jordi PEG400 Results,"[6]; thermal treatment, Table III",34.6 mg/mL
same,Comments when 17 ml of H2O was added to 3 gms of the concentrate,[7]; Nonoxynol-9 concentrate,A clear soln formed.
same,Comments when 17 ml of H2O was added to 3 gms of the concentrate,[7]; Polysorbate 80 concentrate,A clear soln formed.
same,solubility,"[8]; Span 20, organic solvent or mixture",~10 mg/mL
same,solubility,"[8]; Span 80, organic solvent or mixture",~8 mg/mL
same,solubility,"[8]; nonoxynol-9, organic solvent or mixture",~30 mg/mL
same,solubility,"[8]; polysorbate 20, organic solvent or mixture",~25 mg/mL
same,solubility,"[8]; polysorbate 60, organic solvent or mixture",~15 mg/mL
same,solubility,"[8]; polysorbate 80, organic solvent or mixture",~50 mg/mL
same,solubility,"[8]; propylene glycol, organic solvent or mixture",~1 mg/mL
"COc1cc(CNC(=O)CCCC/C=C/C(C)C)ccc1O [Capsaicin, reference compound]",Prepared Thermal Treatment Concentrates in PEG-400,[6]; Table XXI,40 mg/mL
CC(C)CCC[C@@H](C)[C@H]1CC[C@H]2[C@@H]3CC=C4C[C@@H](O)CC[C@]4(C)[C@H]3CC[C@]12C [Cholesterol],Prepared Thermal Treatment Concentrate in Nonoxynol-9,[1]; Table XVII,10 mg/mL
same,Prepared Thermal Treatment Concentrate in PS80,[5]; Table XVII,10 mg/mL
same,Prepared Thermal Treatment Concentrate in PEG-400,[6]; Table XVII,10 mg/mL
"O=c1[nH]cc(F)c(=O)[nH]1 [Fluorouracil, reference compound]","PS80 Solubility: amount solubilized, remained solubilized @ Room Temp.",[5]; thermal treatment,10 wt %
same,"PEG400 Solubility: amount solubilized, remained solubilized @ Room Temp.",[6]; thermal treatment,10 wt %
